Test [1] has as its target T1, carcinoembryonic antigen (CEA) (human), P06731.
T1 chain: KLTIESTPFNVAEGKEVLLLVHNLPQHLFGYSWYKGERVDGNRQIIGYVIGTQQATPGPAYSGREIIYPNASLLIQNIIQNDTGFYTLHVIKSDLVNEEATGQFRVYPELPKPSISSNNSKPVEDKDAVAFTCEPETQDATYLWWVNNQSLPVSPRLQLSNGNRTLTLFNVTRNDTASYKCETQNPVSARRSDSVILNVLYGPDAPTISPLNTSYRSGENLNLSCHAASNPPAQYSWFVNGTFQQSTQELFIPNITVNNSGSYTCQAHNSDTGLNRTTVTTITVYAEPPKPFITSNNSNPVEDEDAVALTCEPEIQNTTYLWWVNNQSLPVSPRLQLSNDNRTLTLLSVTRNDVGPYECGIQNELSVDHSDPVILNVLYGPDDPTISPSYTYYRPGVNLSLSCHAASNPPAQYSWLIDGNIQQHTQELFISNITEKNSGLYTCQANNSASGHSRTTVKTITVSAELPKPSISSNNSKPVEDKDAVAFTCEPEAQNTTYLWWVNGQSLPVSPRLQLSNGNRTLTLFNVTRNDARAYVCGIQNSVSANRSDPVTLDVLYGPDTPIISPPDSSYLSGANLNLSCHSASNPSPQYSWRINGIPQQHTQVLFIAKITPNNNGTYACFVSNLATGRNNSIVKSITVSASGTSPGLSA
As to the kind of experiment: FACS on MKN45 cells (CEA), both hemibodies mixed 1:1, detected with anti-human IgG(H+L) secondary (legend box: FITC; title: A488).

Test [2] has as its target T1, carcinoembryonic antigen (CEA) (human), …. As to the kind of experiment: FACS on MKN-45 cells, both hemibodies added together, detection with anti-huIgG(H+L)-Alexa488.

The source of these data is patent US20240173442A1, “COMBINATION THERAPY” (Hoffmann-La Roche Inc., priority 2021, published 2024).

B1: P1AD8749 + P1AD8592 (1:1 mixture of both hemibodies) (protein)
heavy 1: QVQLVQSGAEVKKPGASVKVSCKASGYTFTEFGMNWVRQAPGQGLEWMGWINTKTGEATYVEEFKGRVTFTTDTSTSTAYMELRSLRSDDTAVYYCARWDFAYYVEAMDYWGQGTTVTVSSASTKGPSVFPLAPSSKSTSGGTAALGCLVKDYFPEPVTVSWNSGALTSGVHTFPAVLQSSGLYSLSSVVTVPSSSLGTQTYICNVNHKPSNTKVDKKVEPKSCDKTHTCPPCPAPEAAGGPSVFLFPPKPKDTLMISRTPEVTCVVVDVSHEDPEVKFNWYVDGVEVHNAKTKPREEQYNSTYRVVSVLTVLHQDWLNGKEYKCKVSNKALGAPIEKTISKAKGQPREPQVCTLPPSRDELTKNQVSLSCAVKGFYPSDIAVEWESNGQPENNYKTTPPVLDSDGSFFLVSKLTVDKSRWQQGNVFSCSVMHEALHNHYTQKSLSLSPG
heavy 2: QVQLVQSGAEVKKPGASVKVSCKASGYTFTEFGMNWVRQAPGQGLEWMGWINTKTGEATYVEEFKGRVTFTTDTSTSTAYMELRSLRSDDTAVYYCARWDFAYYVEAMDYWGQGTTVTVSSASTKGPSVFPLAPSSKSTSGGTAALGCLVKDYFPEPVTVSWNSGALTSGVHTFPAVLQSSGLYSLSSVVTVPSSSLGTQTYICNVNHKPSNTKVDKKV[human IgG1 Fc with changes not listed]GGGGSGGGGSGGGGSGGGGSVTLKESGPVLVKPTETLTLTCTVSGFSLSTYSMSWIRQPPGKALEWLGFIGSRGDTYYASWAKGRLTISKDTSKSQVVLTMTNMDPVDTATYYCARERDPYGGGAYPPHLWGRGTLVTVSS
heavy 3: QVQLVQSGAEVKKPGASVKVSCKASGYTFTEFGMNWVRQAPGQGLEWMGWINTKTGEATYVEEFKGRVTFTTDTSTSTAYMELRSLRSDDTAVYYCARWDFAYYVEAMDYWGQGTTVTVSSASTKGPSVFPLAPSSKSTSGGTAALGCLVKDYFPEPVTVSWNSGALTSGVHTFPAVLQSSGLYSLSSVVTVPSSSLGTQTYICNVNHKPSNTKVDKKV[human IgG1 Fc with changes not listed]
heavy 4: QVQLVQSGAEVKKPGASVKVSCKASGYTFTEFGMNWVRQAPGQGLEWMGWINTKTGEATYVEEFKGRVTFTTDTSTSTAYMELRSLRSDDTAVYYCARWDFAYYVEAMDYWGQGTTVTVSSASTKGPSVFPLAPSSKSTSGGTAALGCLVKDYFPEPVTVSWNSGALTSGVHTFPAVLQSSGLYSLSSVVTVPSSSLGTQTYICNVNHKPSNTKVDKKVEPKSCDKTHTCPPCPAPEAAGGPSVFLFPPKPKDTLMISRTPEVTCVVVDVSHEDPEVKFNWYVDGVEVHNAKTKPREEQYNSTYRVVSVLTVLHQDWLNGKEYKCKVSNKALGAPIEKTISKAKGQPREPQVCTLPPSRDELTKNQVSLSCAVKGFYPSDIAVEWESNGQPENNYKTTPPVLDSDGSFFLVSKLTVDKSRWQQGNVFSCSVMHEALHNHYTQKSLSLSPGGGGGSGGGGSGGGGSGGGGSIQMTQSPSSLSASVGDRVTITCQSSHSVYSDNDLAWYQQKPGKAPKLLIYQASKLASGVPSRFSGSGSGTDFTLTISSLQPEDFATYYCLGGYDDESDTYGFGGGTKVEIK
light: DIQMTQSPSSLSASVGDRVTITCKASAAVGTYVAWYQQKPGKAPKLLIYSASYRKRGVPSRFSGSGSGTDFTLTISSLQPEDFATYYCHQYYTYPLFTFGQGTKLEIKRTVAAPSVFIFPPSDEQLKSGTASVVCLLNNFYPREAKVQWKVDNALQSGNSQESVTEQDSKDSTYSLSSTLTLSKADYEKHKVYACEVTHQGLSSPVTKSFNRGEC
On to B1, for which, in test [1], the EC50 (read off the curve) (µg/ml each Ab) came out at 0.7.

B2: P1AF0712 + P1AF0713 (mixture of both SPLIT antibodies) (protein)
heavy 1: QVQLVQSGAEVKKPGASVKVSCKASGYTFTEFGMNWVRQAPGQGLEWMGWINTKTGEATYVEEFKGRVTFTTDTSTSTAYMELRSLRSDDTAVYYCARWDFAYYVEAMDYWGQGTTVTVSSASTKGPSVFPLAPSSKSTSGGTAALGCLVKDYFPEPVTVSWNSGALTSGVHTFPAVLQSSGLYSLSSVVTVPSSSLGTQTYICNVNHKPSNTKVDKKV[human IgG1 Fc with changes not listed]
heavy 2: QVQLVQSGAEVKKPGASVKVSCKASGYTFTEFGMNWVRQAPGQGLEWMGWINTKTGEATYVEEFKGRVTFTTDTSTSTAYMELRSLRSDDTAVYYCARWDFAYYVEAMDYWGQGTTVTVSSASTKGPSVFPLAPSSKSTSGGTAALGCLVKDYFPEPVTVSWNSGALTSGVHTFPAVLQSSGLYSLSSVVTVPSSSLGTQTYICNVNHKPSNTKVDKKVEPKSCDKTHTCPPCPAPEAAGGPSVFLFPPKPKDTLMISRTPEVTCVVVDVSHEDPEVKFNWYVDGVEVHNAKTKPREEQYNSTYRVVSVLTVLHQDWLNGKEYKCKVSNKALGAPIEKTISKAKGQPREPQVCTLPPSRDELTKNQVSLSCAVKGFYPSDIAVEWESNGQPENNYKTTPPVLDSDGSFFLVSKLTVDKSRWQQGNVFSCSVMHEALHNHYTQKSLSLSPGGGGGSGGGGSGGGGSGGGGSQAVVIQESALTTPPGETVTLTCGSSTGAVTASNYANWVQEKPDHLFTGLIGGHNNRPPGVPARFSGSLIGDKAALTIAGTQTEDEAIYFCALWYSDHWVIGGGTKLTVL
heavy 3: QVQLVQSGAEVKKPGASVKVSCKASGYTFTEFGMNWVRQAPGQGLEWMGWINTKTGEATYVEEFKGRVTFTTDTSTSTAYMELRSLRSDDTAVYYCARWDFAYYVEAMDYWGQGTTVTVSSASTKGPSVFPLAPSSKSTSGGTAALGCLVKDYFPEPVTVSWNSGALTSGVHTFPAVLQSSGLYSLSSVVTVPSSSLGTQTYICNVNHKPSNTKVDKKVEPKSCDKTHTCPPCPAPEAAGGPSVFLFPPKPKDTLMISRTPEVTCVVVDVSHEDPEVKFNWYVDGVEVHNAKTKPREEQYNSTYRVVSVLTVLHQDWLNGKEYKCKVSNKALGAPIEKTISKAKGQPREPQVCTLPPSRDELTKNQVSLSCAVKGFYPSDIAVEWESNGQPENNYKTTPPVLDSDGSFFLVSKLTVDKSRWQQGNVFSCSVMHEALHNHYTQKSLSLSPG
heavy 4: QVQLVQSGAEVKKPGASVKVSCKASGYTFTEFGMNWVRQAPGQGLEWMGWINTKTGEATYVEEFKGRVTFTTDTSTSTAYMELRSLRSDDTAVYYCARWDFAYYVEAMDYWGQGTTVTVSSASTKGPSVFPLAPSSKSTSGGTAALGCLVKDYFPEPVTVSWNSGALTSGVHTFPAVLQSSGLYSLSSVVTVPSSSLGTQTYICNVNHKPSNTKVDKKV[human IgG1 Fc with changes not listed]GGGGSGGGGSGGGGSGGGGSHVKLQESGPGLVQPSQSLSLTCTVSGFSLTDYGVHWVRQSPGKGLEWLGVIWSGGGTAYNTALISRLNIYRDNSKNQVFLEMNSLQAEDTAMYYCARRGSYPYNYFDAWGQGTTVTVSSAST
light: DIQMTQSPSSLSASVGDRVTITCKASAAVGTYVAWYQQKPGKAPKLLIYSASYRKRGVPSRFSGSGSGTDFTLTISSLQPEDFATYYCHQYYTYPLFTFGQGTKLEIKRTVAAPSVFIFPPSDEQLKSGTASVVCLLNNFYPREAKVQWKVDNALQSGNSQESVTEQDSKDSTYSLSSTLTLSKADYEKHKVYACEVTHQGLSSPVTKSFNRGEC
In test [2], B2 had a concentration giving a half-maximal response (EC50) of 0.9 µg/mL.
